The other results are listed elsewhere or left out. At the low end of the ranking the order means little.

The target of the assay is GST-SBP-SLBP (stem-loop binding protein) (UniProt Q14493). Nature of the assay: targeted RNA Bind-n-Seq.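 Also: DESeq read counts versus GST-SBP nonspecific binding control pulldown.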 The conditions noted are these: RBNS binding buffer: 25 mM Tris pH 7.5, 150 mM KCl, 3 mM MgCl2, 0.1% Tween, 0.5 mg/mL BSA, 1 mM DTT; 27 nM protein, 750 pM RNA pool; temperature not stated; high values mean tight binding.
As for “GGUCACGUCUCAAUCAACUCAACUUCCAGGGAAAACCCUGGUAUAUUCAACAGCUCGCAGUCAAG”, the binding signal (log2 fold change) stood at 0.208.
Turning to “GGUCACGUCUCAAUCAACUCAACUUCAGGAGUUUCCUCCUGCUAUUUCAACAGCUCGCAGUCAAG”, the binding signal (log2 fold change) came out at 0.0371.
Take “GGUCACGUCUCAAUCAACUCUUUUCCCAGGGAAAGCCCUGGCAUACUCAACAGCUCGCAGUCAAG”: the binding signal (log2 fold change) is -0.244.
Regarding “GGUCACGUCUCAAUCAACUCAAUCUCCAGGGAAAGCCCUGGCUUUUUCAACAGCUCGCAGUCAAG”, the binding signal (log2 fold change) came to 0.095.
For the sequence “GGUCACGUCUCAAUCAACUCAUUCGCAGGAGUUUUCUCCUGGUAUUUCAACAGCUCGCAGUCAAG”, the binding signal (log2 fold change) is -0.146.
As to “GGUCACGUCUCAAUCAACUCUUCUUCAGGAGUUUACUCCUGCUAUUUCAACAGCUCGCAGUCAAG”, the binding signal (log2 fold change) was -0.159.
For the sequence “GGUCACGUCUCAAUCAACUCUCCAGAGGGGGGGAAAACCCCUUUGCCCUCAUAAUCAACAGCUCGCAGUCAAG”, the binding signal (log2 fold change) was -0.503.
The figure for “GGUCACGUCUCAAUCAACUCCUAAGAGGGGGGGAAAACCCCUUUACCCUCCAAUUCAACAGCUCGCAGUCAAG” is -0.113; for “GGUCACGUCUCAAUCAACUCUUUUUCCAGGGAAAACCCUGGCGUAUUCAACAGCUCGCAGUCAAG” it is 0.352.
With “GGUCACGUCUCAAUCAACUCUACUUCCAGGGAAAGCCCUGGCGUUUUCAACAGCUCGCAGUCAAG” the figure was -0.109; with “GGUCACGUCUCAAUCAACUCAUAAGAGGGGGGGAAAACCCCUUUACCCUCACCAUCAACAGCUCGCAGUCAAG”, 0.0285.
With “GGUCACGUCUCAAUCAACUCAUCGCCAGGAGUUUUCUCCUGUUUACUCAACAGCUCGCAGUCAAG”, the binding signal (log2 fold change) was -0.0831.
For the sequence “GGUCACGUCUCAAUCAACUCACCCGAGGGGGGGAAAACCCCUUUACCCUCAUAAUCAACAGCUCGCAGUCAAG”, the binding signal (log2 fold change) is 0.227.
For the sequence “GGUCACGUCUCAAUCAACUCACAGGAGGGGGGGAAAACCCCUUUACCCUCAACAUCAACAGCUCGCAGUCAAG”, the binding signal (log2 fold change) was -0.0703.
With “GGUCACGUCUCAAUCAACUCAUUUCCCAGGGAAACCCCUGGUUUAUUCAACAGCUCGCAGUCAAG”, the binding signal (log2 fold change) worked out at 0.14.
As for “GGUCACGUCUCAAUCAACUCUACUCCAGGAGUUUCCUCCUGUUUACUCAACAGCUCGCAGUCAAG”, the binding signal (log2 fold change) amounted to 0.0753.
The figure for “GGUCACGUCUCAAUCAACUCAAUCCCCAGGGAAAGCCCUGGUUUUUUCAACAGCUCGCAGUCAAG” is -0.163; for “GGUCACGUCUCAAUCAACUCAUCUUCAGGAGUUUGCUCCUGCAAUUUCAACAGCUCGCAGUCAAG” it is 0.0446.
Take “GGUCACGUCUCAAUCAACUCAUUCUCCAGGGAAAUCCCUGGUUAACUCAACAGCUCGCAGUCAAG”: the binding signal (log2 fold change) was -0.0271.
The figure for “GGUCACGUCUCAAUCAACUCUACUUCAGGAGUUUACUCCUGCUAACUCAACAGCUCGCAGUCAAG” is -0.11; for “GGUCACGUCUCAAUCAACUCUAUUUCCAGGGAAAUCCCUGGCGUUUUCAACAGCUCGCAGUCAAG” it is -0.115; for “GGUCACGUCUCAAUCAACUCAUUCUCAGGAGUUUGCUCCUGUAUAUUCAACAGCUCGCAGUCAAG” it is 0.111.
Regarding “GGUCACGUCUCAAUCAACUCAUUCCCAGGAGUUUGCUCCUGUAAUUUCAACAGCUCGCAGUCAAG”, the binding signal (log2 fold change) is -0.203.
As to “GGUCACGUCUCAAUCAACUCGUCUUCAGGAGUUUUCUCCUGUAUAUUCAACAGCUCGCAGUCAAG”, the binding signal (log2 fold change) is 0.0627.
As for “GGUCACGUCUCAAUCAACUCAAGUCCAGGAGUUUCCUCCUGUUUUCUCAACAGCUCGCAGUCAAG”, the binding signal (log2 fold change) stood at 0.11.
In the case of “GGUCACGUCUCAAUCAACUCUACUUCAGGAGUUUACUCCUGCAAUUUCAACAGCUCGCAGUCAAG”, the binding signal (log2 fold change) worked out at 0.168.
As for “GGUCACGUCUCAAUCAACUCAAUUCCAGGAGUUUACUCCUGUUAUCUCAACAGCUCGCAGUCAAG”, the binding signal (log2 fold change) turned out to be 0.128.
For “GGUCACGUCUCAAUCAACUCUAAAGAGGGGGGGAAAACCCCUUUACCCUCACUUUCAACAGCUCGCAGUCAAG”, the binding signal (log2 fold change) was -0.445.
For the sequence “GGUCACGUCUCAAUCAACUCAUUCCCAGGAGUUUGCUCCUGCAUUCUCAACAGCUCGCAGUCAAG”, the binding signal (log2 fold change) stood at 0.13.
“GGUCACGUCUCAAUCAACUCAACUCCAGGAGUUUACUCCUGCUAAUUCAACAGCUCGCAGUCAAG”: the binding signal (log2 fold change) was 0.163.
The figure for “GGUCACGUCUCAAUCAACUCAUCGCCCAGGGAAAUCCCUGGUUUAUUCAACAGCUCGCAGUCAAG” is 0.258.
Regarding “GGUCACGUCUCAAUCAACUCAUUCUCAGGAGUUUGCUCCUGCUAUUUCAACAGCUCGCAGUCAAG”, the binding signal (log2 fold change) is -0.00768.
With “GGUCACGUCUCAAUCAACUCAAUCGAGGGGGGGAAAACCCCUUUGCCCUCAUCAUCAACAGCUCGCAGUCAAG”, the binding signal (log2 fold change) was -0.263.
The figure for “GGUCACGUCUCAAUCAACUCUACGCCAGGAGUUUCCUCCUGUAAAUUCAACAGCUCGCAGUCAAG” is -0.125.
Take “GGUCACGUCUCAAUCAACUCUUCUUCAGGAGUUUACUCCUGUAUUCUCAACAGCUCGCAGUCAAG”: the binding signal (log2 fold change) turned out to be 0.102.
Turning to “GGUCACGUCUCAAUCAACUCCUUCGAGGGGGGGAAAACCCCUUUACCCUCAAUUUCAACAGCUCGCAGUCAAG”, the binding signal (log2 fold change) is 0.0185.
With “GGUCACGUCUCAAUCAACUCUUUCUCAGGAGUUUCCUCCUGUUAACUCAACAGCUCGCAGUCAAG” the figure was 0.06.

(Values after publication PMC5892938.)
